From paper PMC12136788
This is one part of the list.

T1: UNK ZnF1-6 (called full-length) (human, UniProt Q9C0B0 30-357)
T1 sequence: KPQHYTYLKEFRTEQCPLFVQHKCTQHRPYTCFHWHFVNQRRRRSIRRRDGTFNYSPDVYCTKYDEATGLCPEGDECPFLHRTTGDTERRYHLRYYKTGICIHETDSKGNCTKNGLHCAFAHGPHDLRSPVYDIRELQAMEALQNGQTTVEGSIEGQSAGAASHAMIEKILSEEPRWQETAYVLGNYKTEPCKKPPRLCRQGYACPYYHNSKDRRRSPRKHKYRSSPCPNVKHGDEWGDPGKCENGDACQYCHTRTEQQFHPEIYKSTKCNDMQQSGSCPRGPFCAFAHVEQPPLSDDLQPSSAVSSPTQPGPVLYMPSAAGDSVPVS

B1: chr9:34241424:34241533:+|CDS|ENSG00000165006|unk|FALSE|unique (ssRNA)
RNA: GGGAGUUCUACAGUCCGACGAUCAACCCCAUCCUCGCCAGCUUGCAGCACAACAGCAUCCUCACACCAACUCGGGUCAGCAGUAGUGCCACGAAACAGAAAGUUCUCAGCCCACCUCACAUAAAGGCGGAUUUCAAUCUUGCUCAACAGAGGAUUGAGCAUCA
B2: ENSG00000198589:be:win_2551|CDS|ENSG00000198589|bound_else_gene|NA|bound_elsewhere_windowed (ssRNA)
RNA: GGGAGUUCUACAGUCCGACGAUCAAUAACAGUAGAGAAAACAGGAGGAGCUUGCUACAAUGCUCUGUGUGGCAAGAAUGGAUGCUUUCUCUCUGCUAUUUUAAUCCUAAGAAUUCAGAUGAGCAAAAGAUAACAGAAAUGGUACAACAGAGGAUUGAGCAUCA
B3: chr14:70725707:70725808:-|3pUTR|ENSG00000006432|unk|FALSE|unique (ssRNA)
RNA: GGGAGUUCUACAGUCCGACGAUCGUCGAAUAUCAGCUAUUUCAUAUGGUUCACCCUAAUGUACCUGCCUCUCUCUUUGGCUUUAGGUCUGAGAAUGACUUGUCUUUGUCAAGGUAUACUAUUGUUAGAAACGCAUUACCAAAUCAACAGAGGAUUGAGCAUCA
B4: ENSG00000107863:be:win_1101|CDS|ENSG00000107863|bound_else_gene|NA|bound_elsewhere_windowed (ssRNA)
RNA: GGGAGUUCUACAGUCCGACGAUCGGCUCCCUCUGUAUCUGUUAAUCACUAUUCGCCAAAUUCCCAUCAGCACAUAGACUGGAAAAACUAUAAAACUUACAAAGAGUAUAUUGAUAACAGACGAUUGCACAUAGGUUGUCGGACCAACAGAGGAUUGAGCAUCA
B5: chr8:100287602:100287712:-|CDS|ENSG00000034677|unk|FALSE|unique (ssRNA)
RNA: GGGAGUUCUACAGUCCGACGAUCUGUGUGGAUUGCUUACGACAAUAUUUAAGGAUAGAAAUCUCUGAAAGCAGAGUUAAUAUUAGUUGCCCAGAAUGUACUGAACGGUUUAAUCCCCAUGAUAUUCGCUUGAUAUUAAGUGAUCAACAGAGGAUUGAGCAUCA
B6: chr10:101781316:101781432:-|3pUTR|ENSG00000107833|unk|total|mutant (ssRNA)
RNA: GGGAGUUCUACAGUCCGACGAUCCCCACCUGCCUGUGAGAAUUGGAGGUCCGUGCCUGAAGCUCAGAGCUACACAUUUUUAACCGUUUUUACAUUUUUGGAUAAAGGUUGAAAUAAAGUGGUGUGGAGUUUUUGCAGCUCUUGCAACAGAGGAUUGAGCAUCA
B7: ENSG00000165434:stop:overlap|stop_codon|ENSG00000165434|stop_codon|NA|stop_codon (ssRNA)
RNA: GGGAGUUCUACAGUCCGACGAUCAUGCUCUGAUAGAGAAUUUUCUUCAGCCUAGUAAGAAUGGACUGAUCUGGCGUUCUGUUUAGGGGUACACCAAUAUGUCAUGACACUGUGUGGGCAUAUGGAACAGAGCAACCGAGAACUCAACAGAGGAUUGAGCAUCA
B8: chr10:59791032:59791133:-|3pUTR|ENSG00000108091|msi1|total|mutant (ssRNA)
RNA: GGGAGUUCUACAGUCCGACGAUCUAAUCAUAAUACAGUUCUCAGAUGCAGGGAAGAAGUUUGGCAUUUAAUCAUUGAGGCUUCCGGUUUUUGAUGUGAUCAGACUGGGCCAUGUCAAACCCGGAAUUUUCACCAACAGUUCACCAACAGAGGAUUGAGCAUCA
B9: chr3:48693060:48693174:-|CDS|ENSG00000068745|unk|FALSE|unique (ssRNA)
RNA: GGGAGUUCUACAGUCCGACGAUCCCUUCCAGGUGUGGUAUCUGUGCGCUUUGAAGAAGAUGAAGACAGGAACUUGUGUCUAAUAGCAUAUCCAUUGAAAGGGGACCAUGGAAUUGUGGACAUUGUAGAUAAUUCAGACUGUGACAACAGAGGAUUGAGCAUCA
B10: ENSG00000146216:stop:overlap|stop_codon|ENSG00000146216|stop_codon|NA|stop_codon (ssRNA)
RNA: GGGAGUUCUACAGUCCGACGAUCUGCUCCGCAUCUCGCGGUCCCAGCUGCAGCAGGUGUGGGCCCGGUUCACCCACAAGACCUAGGCUGGGCCCCCCCCCUCCUGGAGGGGGCAGGUGGGGGGGGGUGGGGAGCAGGCAGAGGCAACAGAGGAUUGAGCAUCA
B11: chr9:35091239:35092767:-|three_prime_utr|ENSG00000165282|control|control|control (ssRNA)
RNA: GGGAGUUCUACAGUCCGACGAUCAGGCUUUCCAUUCUGCCCUCUACUCCUGACACCUGUGGCCUGGGGCCUGGUUGGGGCCAUAGCGUAUGCUGGACUCCUGGGAACUAUUGAGCUGAAGCUAGAUCUAGUGCUUCUAGGGGCCAACAGAGGAUUGAGCAUCA
B12: chr8:100258838:100258944:-|CDS|ENSG00000034677|unk|total|mutant (ssRNA)
RNA: GGGAGUUCUACAGUCCGACGAUCAGUGAAUUUGAGGCUCCAUCCCUCAGUGACAGUAUGCCUUCUGCCGCAGAUUCUCACUCCCGUCAUUUUUCUGAAUUCCGUUGUUCUGACCCCGAAAGCAUGAAAACUUCUUGCCGUCAUCAACAGAGGAUUGAGCAUCA
B13: ENSG00000136271:stop:overlap|stop_codon|ENSG00000136271|stop_codon|NA|stop_codon (ssRNA)
RNA: GGGAGUUCUACAGUCCGACGAUCCUGUGCUCAACUUUGAUCUUCCCCCAACCCCUGAGGCCUACAUCCAUCGAGCUGGCAGGUAGUAGUGUGACGGCCCAGGCAUCUGCAUGGACAGCACGCGCUAACAACCCAGGCAUAGUCCAACAGAGGAUUGAGCAUCA
B14: ENSG00000117298:stop:overlap|stop_codon|ENSG00000117298|stop_codon|NA|stop_codon (ssRNA)
RNA: GGGAGUUCUACAGUCCGACGAUCAGGAGACAGGAACCCGAGAAGUAGCUGAAGCAGAAGCCAGCCGCAGUCCCCUUGCCACAUAGAGGCGGGCUUCUCCCAGCCAUGGUGUCCCCUCUGCCUCCCCUCCCCCGACCCUCCUGCCAACAGAGGAUUGAGCAUCA
B15: chr12:49127802:49127903:-|3pUTR|ENSG00000123416|msi1_unk|total|mutant (ssRNA)
RNA: GGGAGUUCUACAGUCCGACGAUCAUGUCAUGCUCCCAGAAUUUCAGCUUCAGCUUAACUGACAGACGUUAAAGCUUUCUGGUCCGAUUGUUUUCACUUGGUGAUCAUGUCUUUUCCAUGUGUACCUGUAAUAUUUUUCCAUCACAACAGAGGAUUGAGCAUCA
B16: chr2:108783740:108783841:+|CDS_3pUTR|ENSG00000153201|msi1_unk|FALSE|overlapping (ssRNA)
RNA: GGGAGUUCUACAGUCCGACGAUCCAAUAAUUCUCAAUUUGUUAUAACACUGAAGAAAGCAGAACAUUUGGACUUUAAGCAUGUAGUAUUUGGGUUUGUUAAGGAUGGCAUGGAUACUGUGAAAAAGAUUGAAUCAUUUGGUUCCAACAGAGGAUUGAGCAUCA
B17: chr17:21001410:21001511:-|3pUTR|ENSG00000124422|msi1_unk|total|mutant (ssRNA)
RNA: GGGAGUUCUACAGUCCGACGAUCCCGUACAACUUUCCGACACAGAAAUCUGAAUGACAUAUAUUGUUCUGUGUCAAGAAACUCCGAUUUUUUUUUUAACUAUUUAAAAACGUGAAACCUAUUCUCCGCUCACAGGCCAUGGAGCAACAGAGGAUUGAGCAUCA
B18: chr20:4700211:4700532:+|3pUTR|ENSG00000171867|msi1|total|mutant (ssRNA)
RNA: GGGAGUUCUACAGUCCGACGAUCUUGCCUGGAUACCUCUGGCUCCUUCAGCAGCCCGAGCUCAGUAUACUAAUGCCCUAUCUCCGCCGAGAUUUCACCGCUAUUCCGAGAUAUUUUCCAUUUUAAGAAAACCCGACAACAUUUCAACAGAGGAUUGAGCAUCA
B19: chr6:149379354:149379455:+|CDS|ENSG00000055208|msi1|FALSE|bound_elsewhere (ssRNA)
RNA: GGGAGUUCUACAGUCCGACGAUCAGGGGUGGUGUCCCCUACCUUUGAACUUACAAAUCUUCUUAAUCAUCCUGAUCAUUAUGUAGAAACCGAGAAUAUUCAGCACCUCACGGACCCUACAUUAGCACAUGUGGAUAGAAUAAGCAACAGAGGAUUGAGCAUCA
B20: ENSG00000100154:stop:overlap|stop_codon|ENSG00000100154|stop_codon|NA|stop_codon (ssRNA)
RNA: GGGAGUUCUACAGUCCGACGAUCAGCCAGUGAAGGCAGGUGACACUUACCUCCACCAGGUGAUGCAGGCUGUGGUGAUAAACUAGAGUGUGAAGAGCUCAGAGUGCAGCCUCUGGCCUUGCCACUCACAAGCUGUAGGACACUCAACAGAGGAUUGAGCAUCA
B21: chr7:138706293:138706717:-|three_prime_utr|ENSG00000105929|control|control|control (ssRNA)
RNA: GGGAGUUCUACAGUCCGACGAUCAUGGUUACAAGUUUUCUCCAUUCUCCUUUAAACACAUCCUGGAUGGCACAGCCGAGGAGUAGGCUGAGGGCUGCACCUCCCACGGUGGUCACCAUGCCAAUGAAGGAAGUUCAGUCUUGUCAACAGAGGAUUGAGCAUCA
B22: chr22:45843749:45843850:+|3pUTR|ENSG00000130638|msi1|total|mutant (ssRNA)
RNA: GGGAGUUCUACAGUCCGACGAUCAAAUUGCAAGUGUUUGAAGAUUUAUAAGUACAAAUUUGGGAACAUACAAAUCUUUCCGGCCGCCGAGUUUAACGUGUAUAAGCUAAAAGUGAAAGUAACUGAGUGUUCUCUUGUUUCUUUCAACAGAGGAUUGAGCAUCA

These binders were tested against T1, UNK ZnF1-6 (called full-length) (assay: nsRBNS (natural sequence RNA bind-n-seq); RBNS binding buffer (assumed for nsRBNS): 25 mM Tris pH 7.5, 150 mM KCl, 3 mM MgCl2, 0.01% Triton X-100, 500 ug/ml BSA, 20 U/ml SUPERase-In, 4 C; UNK is unkempt and MSI1 is Musashi-1; names of the RNAs are library labels; protein concentration not given here; high values mean tight binding).

In order of falling binding signal:
1. B14  1.39 enrichment R
2. B3  1.31 enrichment R
3. B11  1.23 enrichment R
4. B9  0.967 enrichment R
5. B5  0.889 enrichment R
6. B1  0.809 enrichment R
7. B4  0.69 enrichment R
8. B18  0.676 enrichment R
9. B16  0.671 enrichment R
10. B21  0.639 enrichment R
11. B8  0.617 enrichment R
12. B19  0.615 enrichment R
13. B7  0.595 enrichment R
14. B20  0.552 enrichment R
15. B12  0.49 enrichment R
16. B15  0.481 enrichment R
17. B17  0.479 enrichment R
18. B2  0.473 enrichment R
19. B6  0.456 enrichment R
20. B10  0.441 enrichment R
21. B22  0.399 enrichment R
22. B13  0.398 enrichment R
